# According to PubChem BioAssay AID602310 (National Center for Advancing Translational Sciences (NCATS), 2012):
# In all, about 410,000 compounds went through this assay and about 310 (0.076%) were called active. Inconclusive means that the source gave no clear call. Such entries were picked first, then a sample of the others. Calls come from the whole dose curve; as a rule, active = well fitted curve in the direction sought with a large enough effect; inconclusive = small, poorly fitted or top-dose-only effect; inactive = flat fitted curve, though single readings scatter. A potency beside an inconclusive call is a rough fit, not a confirmed value.
# Biological target: DNA dC->dU-editing enzyme APOBEC-3G (Homo sapiens) (UniProt Q9HC16)
# Sequence of UniProt Q9HC16 (Q9HC16 whole entry, looked up): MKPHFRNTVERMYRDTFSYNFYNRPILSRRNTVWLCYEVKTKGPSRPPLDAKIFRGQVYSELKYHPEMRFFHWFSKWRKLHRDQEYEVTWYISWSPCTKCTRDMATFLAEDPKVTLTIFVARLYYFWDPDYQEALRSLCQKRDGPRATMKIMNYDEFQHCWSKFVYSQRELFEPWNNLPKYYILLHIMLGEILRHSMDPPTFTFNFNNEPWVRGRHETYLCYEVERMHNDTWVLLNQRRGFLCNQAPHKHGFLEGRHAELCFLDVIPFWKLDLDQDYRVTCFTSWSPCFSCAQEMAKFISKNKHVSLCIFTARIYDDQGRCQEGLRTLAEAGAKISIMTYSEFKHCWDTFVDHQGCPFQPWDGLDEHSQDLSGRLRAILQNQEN
# Assay: qHTS for Inhibitors of Vif-A3G Interactions: qHTS; note: nearly all actives have a fitted effect of over 60% in size;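 for activity, negative = active: hits raise eYFP signal because A3G escapes Vif-driven loss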
# Details: HeLa A3G-eYFP + Vif (tagged APOBEC3G with the HIV-1 protein that degrades it), YFP fluorescence, overnight; series mostly up to 46.1 µM; activity, negative = active: at the top concentration
# Procedure, shortened: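 HeLa cells stably expressing Vif and C-terminally eYFP-tagged A3G, seeded overnight at 37 deg C, then exposed to compound by pintool overnight at 37 deg C. Rise in yellow fluorescence (Ex 488/Em 500-530, Acumen) marks blocked Vif-driven A3G degradation.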
# % is set by controls: 0 for no effect and ±100 for the full control effect; potency is the fitted concentration of half-maximal effect; tags give direction and shape of the fitted curve.
SMILES,Potency,"activity, negative = active"
Cc1nc(S/C(=C/c2ccc(-c3ccc(Cl)cc3)o2)C(=O)O)n[nH]1,"inconclusive: 35.5 µM [inhibitor, single point]",–
O=C(c1cc([N+](=O)[O-])ccc1N1CCCCC1)N1CCc2ccccc21,"inconclusive: 2.51 µM [inhibitor, full curve, poor fit]",–
CSc1cccc(NC(=S)N2CCCN(Cc3ccc(F)cc3)C2)c1,–,inactive: -6.32%
C/C(=N\NC(N)=S)c1cc(-c2ccccc2)c(-c2ccccc2)s1,–,inactive: -0.0375%
COCCn1c(=S)[nH]c2cc(C(=O)N3CCN(c4cccc(Cl)c4)CC3)ccc2c1=O,–,inactive: -1.76%
COc1cc(Cl)c(C)cc1NC(=O)CN1CCN(C(=O)C2CC2)CC1,"inconclusive: 14.1 µM [inhibitor, partial curve, poor fit]",–
O=C(O)C1CCN(c2nc(-c3ccccc3)c3cc(Br)ccc3n2)CC1,–,inactive: -3.53%
Cc1ccc(-c2cnc(C3CC3)o2)cc1S(=O)(=O)Nc1ccccc1,"inconclusive: 2.51 µM [inhibitor, partial curve, poor fit]",–
Cc1ccc2nc(-c3ccc(C)c(NC(=O)COc4ccccc4Cl)c3)oc2c1,–,inactive: 5%
CC(Oc1ccc2cc(-c3ccccc3)c(=O)oc2c1)C(=O)NCC1CCC(C(=O)O)CC1 (centres undefined),–,inactive: -3.66%
CCOc1ccc(C(=O)/C=C/c2cn(CC(O)CN3CCCCCC3)c3ccccc23)cc1 (centres undefined),–,inactive: -4.47%
N#Cc1c(-c2ccccc2)ccn(Cc2ccccc2Cl)c1=O,"inconclusive: 3.55 µM [inhibitor, single point]",–
Cc1ccc(C(=O)c2cc([N+](=O)[O-])ccc2N2CC(C)OC(C)C2)cc1 (centres undefined),"inconclusive: 1.12 µM [inhibitor, full curve, poor fit]",–
Cc1ccc(C(=O)NC(C#N)=C(Cl)Cl)cc1,"inconclusive: 35.5 µM [inhibitor, single point]",–
COc1ccccc1NC(=O)C(C)OC(=O)/C=C/c1ccc2ccccc2n1 (centres undefined),"inconclusive: 35.5 µM [inhibitor, single point]",–
Cc1cc(N/N=C/c2c(O)ccc3ccccc23)nc(-c2ccccc2O)n1,"inconclusive: 22.4 µM [inhibitor, single point]",–
CN[C@H]1CCc2cc(OC)c(OC)c(OC)c2-c2ccc(N(C)CC(OC)OC)c(=O)cc21,"inconclusive: 2.82 µM [inhibitor, full curve, poor fit]",–
Cc1cc(C)n2c(SCc3ccc(Br)cc3)nnc2n1,–,inactive: -0.609%
O=C(CCl)Nc1cccc(S(=O)(=O)N2CCCCCC2)c1,"inconclusive: 11.2 µM [inhibitor, partial curve]",–
